Where two headings read alike, the source gives them in different places.
Test system: HBEGF locus
Type: cell-based, human
Details: high-throughput screen of dXR repression of the HBEGF gene
[1] = abundance of each domain in the library before and after diphtheria toxin selection, HEK293T cells
[2] = change in abundance of each domain in the library before and after diphtheria toxin selection

B1: DOMAIN_18753 (protein, listed as Monodelphis domestica)
chain: SITFKDVVVDFTQEEWCLLDPSQKELYREVMLENVQNLFFVEAETNFEVKEMSTKMRLFVEGSNSPRGMKRNPCDFLFREI
- Log2 (fold change) [1]: 2.6101

B2: DOMAIN_18947 (protein, listed as Enhydra lutris)
chain: HQGLLTFRDVAVEFSLEEWGRLTHTQRQLYRDVMLENYGHLLFLGLIVSKPDLVSFLEQKKEPWNLKRKKTVAFHPAISSH
- Log2 (fold change) [1]: 3.3167

B3: DOMAIN_18817 (protein, listed as Monodelphis domestica)
chain: GARVLVSFADVAVYFSPEEWGRLRPEQRALYRDVMRETYGHLGALGFPGPKPALISWMEEAAWDSEAKPVIKRLEDVGQPP
- Log2 (fold change) [1]: 2.2496

B4: DOMAIN_19072 (protein)
chain: FQGSVSFKDVTVGFTLEEWQHLDSTQRSLYRDVMLENYSNLVSLGYCVTKPEVIFRLEQGEEPWILEEEFPSQSFPESWET
modifications: Vulpes vulpes
- Log2 (fold change) [1]: 2.8133

B5: DOMAIN_19437 (protein, listed as Aotus trivirgatus)
chain: METLTFRDVAIEFSLEEWQCLDIAQQDLYRKVMLENYRNLAFLGIALTKPDLITCLEQRKVPWNMKRHEMADEPPVLCSNF
- Log2 (fold change) [1]: 2.826

B6: DOMAIN_18785 (protein, listed as Leptonychotes weddellii)
chain: LLTFEDVAVSFSEEEWKLLDPTQKILYNDVMQENYETVISLGLKLKNDTGNDQPISLSALEIQASGCKVLRKARMKVAQKT
- Log2 (fold change) [1]: 2.9139

B7: DOMAIN_18830 (protein, listed as Monodelphis domestica)
chain: RQERVTFGDVAVDFTLDEWVCLDSAQKALYRDVMLENYGHLVCLGLAGAKPAVIQRLERGEAAWCPGVPGSRLPDWETRLE
- Log2 (fold change) [1]: 3.2719

B8: DOMAIN_19447 (protein, listed as Monodelphis domestica)
chain: PAQVLVTFKDVAVDFTQEEWRLLDPHQKELYKEVTLENAWNMLSMGLPVPRDLVSHFKQVEAPWMLEEEGSSNSCLDGERR
- Log2 (fold change) [1]: 3.4492

B9: DOMAIN_19079 (protein, listed as Otolemur garnettii)
chain: SVMFNDISIVFSQEEWEYLDLEQKDLYKDVMLENYGNLVSLGCFIAKPDVISLLEQGKEPWKVIRKGRRGYPDLETRYETK
- Log2 (fold change) [1]: 4.0159

B10: DOMAIN_18618 (protein, listed as Physeter macrocephalus)
chain: AQGLVLFEDVSVDFTQKEWQLLDRTQRLLYRDVMLENYGHLVSLGHCVSKPELILKLEQEEEPWILKGQLASESHPEVQRT
- Log2 (fold change) [1]: 2.6489

B11: DOMAIN_19028 (protein, listed as Pongo sp.)
chain: ACGSITFRDVAIDFSHQEWEYLNLVQKTLYQEVMMENYDNLVLLGHSKSKPDLITLLEQGKEPWMIVREETRGECTAELQS
- Log2 (fold change) [1]: 2.3618

B12: DOMAIN_19125 (protein, listed as Otolemur garnettii)
chain: GTVVFSDVSVDFSQEEWECLDPVQRDLYREVMLENYSNLVSVGAGPYIPKPQVISLLEQGKEPWMVGRELTRGLCSDLESM
- Log2 (fold change) [1]: 2.9892

B13: DOMAIN_18760 (protein)
chain: ALRSVMFSDVSIDFSPEEWEYLDLEQKDLYRDVMLENYSNLVSLAGCFISKPDVISSLEQGKEPWKVVRKGRRQYPDLETK
modifications: Pan troglodytes
- Log2 (fold change) [1]: 3.1806

B14: DOMAIN_19207 (protein, listed as Enhydra lutris)
chain: PQDLMTFEDVAVEFTQWEWGQLDPAQKDLYRVVMLENFKNLASLGFPVAKPYVISQLEKGKEPCVLEGEISTDWEKRPKAK
- Log2 (fold change) [1]: 2.655

B15: DOMAIN_18873 (protein, listed as Camelus dromedarius)
chain: FQESVTFEDVAIYFSENEWTGLAPAQRALYRDVMLENYGAVASLAAFPFPKPALIFQLEQGEAPWSSAPQGALDGEGPRGI
- Log2 (fold change) [1]: 3.262

B16: DOMAIN_19221 (protein, listed as Camelus dromedarius)
chain: PQGLVTFGDVAVDFSQEEWEWLDCAQRTLYRSVMLENYRSLVSLGLCVSKPEMISSLEQRKEPWTVKRKCTRGQCPDSEAV
- Log2 (fold change) [1]: 3.1733

B17: DOMAIN_19385 (protein, listed as Monodelphis domestica)
chain: AQEMVTFQDVAVDFTREEWCLLSPPQKELYKEVMLENARNLLSVGLPALPEDVISYLEQREAPWMLEREGPRSCCPGEILL
- Log2 (fold change) [1]: 2.9198

B18: DOMAIN_19005 (protein, listed as Enhydra lutris)
chain: SQSLVTFGDVAVDFSREEWEWLSSAQRTLYRTVMLENYRNLVSLGLCISKPDMISSLEQRKEPWMAKRKLTRGRCPDLKIV
- Log2 (fold change) [1]: 3.4092

B19: DOMAIN_19220 (protein, listed as Camelus dromedarius)
chain: TPEPVRFADVAVYFSLEEWGCLQPAQRALYRDVMRETYGHLGALGFRGTKPALISWVEKEAELWGPDARDPEVGECLTEAD
- Log2 (fold change) [1]: 3.1947

B20: DOMAIN_145 (protein, listed as Pan paniscus)
chain: MVTFEDVAVHFTKTEWTGLSPAQRALYRSVMLENFGNLTALGYPVPKPALISLLEGGDMAWGLEAQDDPPAERTKNVCKVI
- Log2 (fold change) [2]: 3.1497

B21: DOMAIN_18734 (protein, listed as Monodelphis domestica)
chain: PGQEVVTFKDMAVDFTREEWRLLTPPQKELYKEVMLENARNLLSVGFAVPGDVISYLEQREAPWLLEQEGLRSCSPGDISP
- Log2 (fold change) [1]: 2.8813

B22: DOMAIN_18835 (protein, listed as Camelus dromedarius)
chain: PLETVTFGDVVLDFTQEEWALLDTSQKKLFRDVMLENIHHLVSVGYQISKSDVILQLEQGKELWREGEGRPQGRGPGSESP
- Log2 (fold change) [1]: 2.4878

B23: DOMAIN_18677 (protein, listed as Monodelphis domestica)
chain: FQASVTFKDVAVDFTWEEWRLLDPPQKELFWEVMLENYRNLVCLGLADSNKDVMISELESGEPHWIPTGGVLRSCWPGWES
- Log2 (fold change) [1]: 2.2686

B24: DOMAIN_19445 (protein, listed as Monodelphis domestica)
chain: PQASVTFKDVAVDFTWEEWRLLDPSQKELFWEVMLENYRNLVCLGLADSNKDVRISELESGEPHWIPTGGVLRSCWPGWES
- Log2 (fold change) [1]: 2.1105

B25: DOMAIN_18594 (protein, listed as Monodelphis domestica)
chain: AQVLVTFQDVAVDFTQEEWRLLDPGQKELYKEVMLENAENMLFLGLPVPREDWFFHFHEGGDPWMLEGKGPSISRLDEERH
- Log2 (fold change) [1]: 3.2119

B26: DOMAIN_18971 (protein, listed as Enhydra lutris)
chain: RPGAVSFADVAVYFSPEEWGCLRPAQRALYRDVMRETYGHLGALGFAGSKPALISWLERKKEVWSPEAEDPEDGARHPGSG
- Log2 (fold change) [1]: 3.3941

B27: DOMAIN_19351 (protein, listed as Pongo sp.)
chain: YEEMVTFEDVAVHFTKTEWTGLSPAQRALYRSVMLENFGNLTALGYPVPKPALISLLEGGDMAWGLEAQDDPLAEMTKNVC
- Log2 (fold change) [1]: 3.1988

B28: DOMAIN_134 (protein, listed as Pan paniscus)
chain: PAQGPGKARPSRKRGRRPRALKFVDVAVYFSPEEWGCLRPAQRALYRDVMRETYGHLGALGCAGPKPALISWLERNTDDWE
- Log2 (fold change) [2]: 2.9322

B29: DOMAIN_19423 (protein, listed as Monodelphis domestica)
chain: PPRQERVTFGDVAVDFTLDEWVCLDSAQKALYRDVMLENYGHLVCLGLAGAKPAVIQRLERGEAAWCPGVPGSRLPGLFFF
- Log2 (fold change) [1]: 3.49

B30: DOMAIN_19404 (protein, listed as Monodelphis domestica)
chain: IQGSLTFKDVAMNFTQEEWCLLDHSQKELYLEVMLENVQNLLSVGLPVPREYYTSYFQQEKAPWLLVQKGPRNSSPEAETN
- Log2 (fold change) [1]: 2.0125

B31: DOMAIN_18891 (protein, listed as Pongo sp.)
chain: SKAPVTFGDLAIYFSQEEWEWLSPIQKDLYEDVMLENYRNLVSLGLSFRRPNVITLLEKGKAPWMVEPVRRRRAPGWTTMM
- Log2 (fold change) [1]: 3.6429

B32: DOMAIN_18977 (protein, listed as Pongo sp.)
chain: SKAPVTFGDLAIYFSQEEWEWLSPIQKDLYEDVMLENYRNLVSLGLSFRRPNVITLLEKGKAPWMVEPVRRRRAPELTEAS
- Log2 (fold change) [1]: 3.6262

B33: DOMAIN_18698 (protein, listed as Felis catus)
chain: FQESVTFEDVAVYFSENEWIGLAPAQRVLYRDVMLENYGVVASLAFPFPKPALISQLERGEAPWCKAPQGAVDGECPRGVS
- Log2 (fold change) [1]: 3.3067

B34: DOMAIN_18935 (protein)
chain: HQEVVTFEDVAVYFTQTEWAGLSPAQRALYRSVMLEIYGNLTSLGYPVPKPALVSLLERGDLPVGLETQDNPPAQGTRDIY
modifications: Ovis aries
- Log2 (fold change) [1]: 3.4507

B35: DOMAIN_19056 (protein)
chain: HQEVVTFEDVAVYFTRTEWAGLSPAQRALYRSVMLEIYGSLTSLGYPVPKPALISLLERGDLPVGLETQDNPPAQGTRDIY
modifications: source 1..81: note = Bos indicus x Bos taurus
- Log2 (fold change) [1]: 3.0542

B36: DOMAIN_18724 (protein)
chain: FQEPVTFEDVAVYFTQNEWASLHPMQRALHREVMLENYANVTSLSAFPFPKPDLIFQLEQGEAAWGPDPWTLAGGETLRGM
modifications: Pan troglodytes
- Log2 (fold change) [1]: 3.2062

B37: DOMAIN_18752 (protein, listed as Monodelphis domestica)
chain: APAPVSFRDVAVDFTRQEWQLLAPAQRALYREVMLENYRNVASLGHPVSKPNVIFQLEQSEAPWMPEGEAARSLPPDWEAR
- Log2 (fold change) [1]: 3.5544

— patent US12551573B2, “Compositions and methods for the targeting of PCSK9” (Scribe Therapeutics Inc., priority 2022, dated 2026)
